Measured values published in article PMC4336329 (PLoS ONE, 2015).
Hit rate of the full screen: of about 310,000 compounds, about 2,200 (0.71%) showed an effect of 50% or more. Effects have a minus sign here. The list shows a part of the results.

These molecules were tested against human ether-à-go-go-related gene (hERG) potassium channel (human, UniProt Q12809) (assay: primary screen, population patch clamp on CHO cells stably expressing hERG).
Chain of human ether-à-go-go-related gene (hERG) potassium channel (Q12809 whole entry, looked up): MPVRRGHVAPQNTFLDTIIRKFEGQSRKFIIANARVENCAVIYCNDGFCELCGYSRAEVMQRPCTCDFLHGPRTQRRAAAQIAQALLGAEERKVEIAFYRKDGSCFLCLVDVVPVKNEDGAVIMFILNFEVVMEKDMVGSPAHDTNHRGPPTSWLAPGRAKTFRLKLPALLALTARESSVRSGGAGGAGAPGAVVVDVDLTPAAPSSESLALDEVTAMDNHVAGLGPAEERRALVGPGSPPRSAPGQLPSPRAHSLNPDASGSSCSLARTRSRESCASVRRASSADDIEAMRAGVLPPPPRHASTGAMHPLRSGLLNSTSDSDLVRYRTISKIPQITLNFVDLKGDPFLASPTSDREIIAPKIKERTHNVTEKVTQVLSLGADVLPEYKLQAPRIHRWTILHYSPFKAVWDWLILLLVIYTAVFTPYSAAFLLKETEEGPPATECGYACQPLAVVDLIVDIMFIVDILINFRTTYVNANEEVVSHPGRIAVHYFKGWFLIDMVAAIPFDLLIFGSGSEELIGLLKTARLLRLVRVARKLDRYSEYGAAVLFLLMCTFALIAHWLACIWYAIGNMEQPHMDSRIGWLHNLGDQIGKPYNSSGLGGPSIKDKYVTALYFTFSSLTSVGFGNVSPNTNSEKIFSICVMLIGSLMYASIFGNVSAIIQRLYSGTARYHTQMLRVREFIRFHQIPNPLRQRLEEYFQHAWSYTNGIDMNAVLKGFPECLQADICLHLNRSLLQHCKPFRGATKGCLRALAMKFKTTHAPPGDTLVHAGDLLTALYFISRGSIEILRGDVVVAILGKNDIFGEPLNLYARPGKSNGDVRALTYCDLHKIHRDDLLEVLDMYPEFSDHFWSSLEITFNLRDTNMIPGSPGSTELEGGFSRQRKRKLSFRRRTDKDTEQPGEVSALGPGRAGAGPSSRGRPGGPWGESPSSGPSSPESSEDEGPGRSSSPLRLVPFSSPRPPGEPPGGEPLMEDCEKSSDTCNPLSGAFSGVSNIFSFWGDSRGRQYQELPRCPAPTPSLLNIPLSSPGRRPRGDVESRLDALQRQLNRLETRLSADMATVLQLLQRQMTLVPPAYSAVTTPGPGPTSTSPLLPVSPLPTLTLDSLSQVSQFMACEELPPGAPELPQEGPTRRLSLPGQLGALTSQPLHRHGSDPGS

| SMILES | hERG current change (%, negative = inhibition) at 1uM [%] |
| --- | --- |
| Cc1nnc(NC(=O)CCSc2ccc(Cl)cc2)s1 | 1.84 |
| Cc1cccc(N2CCN(CC(O)COCc3cccs3)CC2)c1C (stereo not drawn) | -63.9 |
| CC1CCN(C(=O)CSc2nc3c(cnn3-c3ccc(Cl)cc3)c(=O)[nH]2)CC1 | 5.16 |
| COc1cccc(-c2nn(-c3ccccc3)cc2CN(C)Cc2ccno2)c1 | 12.5 |
| COC(=O)c1ccc(CSc2nc3sc(C(=O)O)c(C)c3c(=O)[nH]2)cc1 | 11.5 |
| Cc1onc(-c2ccccc2Cl)c1C(=O)N1CCN=C1SCc1cccnc1 | 8.2 |
| COc1ccc2[nH]c(=S)[nH]c2c1 | 9.31 |
| COc1ccc(OC)c(CNC(=O)Cc2c(C(=O)O)[nH]c3ccccc23)c1 | 10.7 |
| O=C(NNc1c(Cl)cccc1Cl)c1ccno1 | 11 |
| COC(=O)c1cc(-c2ccc(OC)cc2)on1 | 6.16 |
| CC(C(=O)N(C)CC(=O)Nc1ccccc1C(F)(F)F)N1C(=O)c2ccccc2C1=O (stereo not drawn) | 1.08 |
| Cc1cc(C)nc(-n2nc(C)c(Br)c2Nc2ccc(Br)cc2)n1 | 8.85 |
| CC(C)(C)c1ccc(/C=N/NC(=S)NC2CCCCC2)cc1 | 13.1 |
| CC(C)(C)C(=O)CSc1nc2ccccc2o1 | 4.06 |
| Cc1ccc(-c2nc(-c3ccncc3)no2)cc1Cl | 14.4 |
| CCOc1cc(C(=O)N/N=C/C2CC=CCC2)cc(OCC)c1OCC (stereo not drawn) | -3.74 |
| CCN1CCN(C(=O)c2ccc(CSc3ccc(C)cc3)cc2)CC1 | -19.7 |
| CCC(=NCc1ccco1)c1c(O)n(-c2ccc(Cl)cc2)c(=O)[nH]c1=O | 5.6 |
| O=C(O)CCC(=O)Nc1ccc(S(=O)(=O)Nc2nccs2)cc1 | -0.895 |
| Cc1ccc(CNC(=O)CN(C)S(=O)(=O)c2cccc3cccnc23)cc1 | 12.3 |
| Cc1[nH]c2ccc(C(=O)OCC(=O)NC3(C#N)CCCCC3)cc2c1C | -1.84 |
| O=C(NCCc1ccccc1)c1ccccc1NS(=O)(=O)N1CCCC1 | 7.47 |
| Cc1ccc(/C=N/NC(=O)CSc2nc3ccccc3s2)o1 | 6.77 |

| SMILES | hERG current change (%, negative = inhibition) at 1uM [%] |
| --- | --- |
| COc1ccc(C(=O)NC2CCCCCC2)cc1S(=O)(=O)N1CCOCC1 | 3.05 |
| c1ccc2c(CCNc3ncnc4nc[nH]c34)c[nH]c2c1 | 11.5 |
| O=C(CC1SCCNC1=O)Nc1cccc(Cl)c1 (stereo not drawn) | 14.6 |
| O=C(NCC1CCCO1)c1cc2c(s1)CS(=O)(=O)C2 (stereo not drawn) | 9.63 |
| C=CCOc1cccc(CNn2cn[nH]c2=S)c1 | 5.04 |
| COc1cc2c(C#CCCCO)c(-c3ccc(C#N)cc3)oc(=O)c2cc1OC | 8.8 |
| CCCCn1nc(C(=O)NC2=NCCS2)c2ccccc2c1=O | 2.01 |
| Cc1ccc(C(=O)c2ccccc2C(=O)O)cc1C | 6.95 |
| COc1cccc(-c2nc(CS(=O)(=O)CC(=O)NCCc3ccc(C)cc3)c(C)o2)c1 | -0.095 |
| O=C(NCCNC(=O)C(F)(F)F)c1ccncc1 | -1.68 |
| CCC(=NCc1ccco1)c1c(O)[nH]c(=O)[nH]c1=O | 6.41 |
| Nc1ccc2nc3n(c(=O)c2c1)CCC3 | 4.9 |
| Brc1ccccc1C1=Nn2c(nnc2-c2ccco2)SC1 | 9.81 |
| CCCn1c(SCC(=O)NCc2ccc(C)cc2)n[nH]c1=O | 15.5 |
| COc1ccc(-c2noc3c2-c2nc(-c4c(F)cccc4F)sc2CC3)cc1 | 11.6 |
| COc1cccc(Nc2nnc(SCC(=O)Nc3sccc3C(N)=O)s2)c1 | 7.51 |
| N/C(=N\[N+](=O)[O-])N1CCN(C(=O)c2ccccc2)CC1 | 9.01 |
| C=CCn1c(C)cc(C(=O)COC(=O)COc2ccccc2C#N)c1C | 8.91 |
| CCOC(=O)N1CCN(C(=O)CCS(=O)(=O)c2cc3c(cc2Cl)NC(=O)CO3)CC1 | -1.95 |
| COc1ccc(CN2CCN(C(=O)CC(C)C)CC2)cc1 | 20.2 |
| CCCS(=O)(=O)c1c(S(=O)(=O)CCC)c2ccccn2c1C(=O)OC | 1.95 |
| CCCOc1ccc(C(=O)O/N=C(\CC)c2ccc(C)cc2)cc1 | 9.24 |
